Assay results as given in PubChem BioAssay AID2147 (National Center for Advancing Translational Sciences (NCATS), 2009).
Screen size: about 230,000 compounds; about 3,600 (1.6%) were called active. The inconclusive results got no clear call from the source; some entries with a clear call stand among them for comparison. Calls follow the shape of the dose curve; as a rule, active = well fitted inhibition curve with a large enough effect (not every such curve was filed as active); inconclusive = small, poorly fitted or top-dose-only effect, or another doubt; inactive = no such curve, though single readings can be large or run the other way. Potencies of inconclusive entries are doubtful fits and often do not repeat.

target: Lysine-specific demethylase 4E (Homo sapiens) (UniProt B2RXH2); test: qHTS Assay for Inhibitors of Human Jumonji Domain Containing 2E (JMJD2E); details: JMJD2E catalytic domain, FDH-coupled NADH fluorescence (FDH is formaldehyde dehydrogenase); series mostly up to 57.1 µM
Also: nearly all actives have a fitted effect of over 50% in size.
Potency is read from the fitted curve at half-maximal effect; tags tell the direction and shape of the fitted curve.

Sequence of UniProt B2RXH2 (B2RXH2 whole entry, looked up, the tested form may be a part): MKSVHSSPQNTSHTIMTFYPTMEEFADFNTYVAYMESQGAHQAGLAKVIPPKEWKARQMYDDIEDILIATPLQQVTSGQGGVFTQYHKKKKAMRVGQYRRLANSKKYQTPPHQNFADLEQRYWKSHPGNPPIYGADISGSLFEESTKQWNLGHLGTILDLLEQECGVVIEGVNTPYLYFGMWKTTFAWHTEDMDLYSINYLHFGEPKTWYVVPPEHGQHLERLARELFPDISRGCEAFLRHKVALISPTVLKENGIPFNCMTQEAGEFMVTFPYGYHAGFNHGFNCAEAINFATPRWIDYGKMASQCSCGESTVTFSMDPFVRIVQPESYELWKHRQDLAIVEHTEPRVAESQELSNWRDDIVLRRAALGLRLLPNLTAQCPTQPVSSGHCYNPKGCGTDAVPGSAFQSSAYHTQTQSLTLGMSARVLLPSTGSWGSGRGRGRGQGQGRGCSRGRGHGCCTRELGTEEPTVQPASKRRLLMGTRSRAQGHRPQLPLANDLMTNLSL

SMILES | Potency
CCOC(=O)N1CCC(NC(=O)Cn2nc(Cc3ccncc3)c3ccccc3c2=O)CC1 | inactive
COCCNC(=O)CCn1nc(-c2ccc(Cl)cc2)ccc1=O | inconclusive: 39.8 µM [inhibitor, single point]
O=C(O)c1cc(-c2ccc(/C=C3\NC(=O)N(c4ccc(Cl)cc4)C3=O)o2)ccc1Cl | inconclusive: 28.2 µM [inhibitor, partial curve]
S=C(NCc1cccnc1)NCc1cccnc1 | inactive
c1ccc2nc3[nH]cnc3nc2c1 | inconclusive: 28.2 µM [inhibitor, partial curve]
S=C(NCc1ccccn1)Nc1cccc(Cl)c1 | inactive
C#CCOCCOCCOCCNc1nc(N2CCN(C(=O)[C@H](Cc3ccc(O)cc3)n3cc([C@@H](N)CC(C)C)nn3)CC2)nc(N2CCN(C(=O)[C@H](Cc3ccc(O)cc3)n3cc([C@@H](N)CC(C)C)nn3)CC2)n1 | inconclusive: 39.8 µM [inhibitor, single point]
O=C(O)c1cccc(N2CCCC2)c1 | inconclusive: 31.6 µM [inhibitor, partial curve]
CCCCn1nnnc1SCC(=O)c1ccc(C)c(C)c1 | inactive
COc1cccc(/C=N/NC(=O)c2cc3c(OC)cccc3[nH]2)c1O | active: 25.1 µM
Cc1ccc(-n2cccn2)cc1 | inactive
O=C(CSc1nnc(-c2cccnc2)s1)Nc1ccnc2ccccc12 | inactive
COc1ccccc1/C=C/C(=O)OCC(=O)Nc1cc(C(F)(F)F)ccc1N1CCOCC1 | inconclusive: 35.5 µM [inhibitor, single point]
O=C(Nc1nnc(-c2ccccc2)s1)c1cccc(S(=O)(=O)N2CCOCC2)c1 | inconclusive: 39.8 µM [inhibitor, single point]
Cc1ccc(NC(=O)C2CCCN2C(=O)OC(C)(C)C)cc1C (configuration not stated) | inactive
Cc1ccc(-c2nnc(-c3ccccc3S(=O)(=O)Cc3ccc(Cl)cc3)o2)cc1 | inconclusive: 35.5 µM [inhibitor, partial curve]
CC(=O)C1=C(C)Nc2cc(C(F)(F)F)ccc2S1 | inactive
CC(=O)Nc1csc2ccccc12 | inactive
CCOC(=O)C1CCN(c2nc(N)c3c(N)nc(SCC(=O)O)cc3c2C#N)CC1 | inconclusive: 28.2 µM [inhibitor, partial curve]
O=C1N=C(c2ccccc2)S/C1=C\c1cccs1 | inactive
CC(=O)N/N=C/c1c(C)[nH]n(-c2ccccc2)c1=O | inconclusive: 39.8 µM [inhibitor, single point]
CCN(CC)S(=O)(=O)c1ccc2[nH]cc(C(=O)NCCN3CCCCCC3)c(=O)c2c1 | inconclusive: 25.1 µM [inhibitor, partial curve]
CNS(=O)(=O)c1cccc(C(=O)OCC(=O)Nc2ccc(-c3nc4ccc(C)cc4s3)cc2)c1 | inconclusive: 31.6 µM [inhibitor, partial curve]
Cn1ccnc1SCC(=O)Nc1sccc1C#N | inactive

SMILES | Potency
Cc1cccc2sc(NC(=O)c3cc(S(=O)(=O)N(C)C)ccc3N3CCCC3)nc12 | inconclusive: 31.6 µM [inhibitor, single point]
Cc1sc2cc3c(c(C(=O)c4ccccc4)[n+]2c1C)-c1cccc2cccc-3c12 | inconclusive: 28.2 µM [inhibitor, single point]
Cc1sc2nc(COC(=O)C(NC(=O)c3ccc(Cl)cc3Cl)C(C)C)[nH]c(=O)c2c1C (configuration not stated) | inconclusive: 39.8 µM [inhibitor, single point]
Cc1cc(C(=O)N/N=C/c2ccc(-c3cccc(Cl)c3)o2)n[nH]1 | inconclusive: 2.24 µM [inhibitor, partial curve]
O=C(CSc1ncnc2sc3c(c12)CCCCC3)NCc1ccco1 | inconclusive: 39.8 µM [inhibitor, single point]
O=C(Cc1ccccc1)n1nc(-c2ccccc2)nc1NCc1ccco1 | inconclusive: 28.2 µM [inhibitor, single point]
Cc1ccc(C(=O)NNC(=S)NC(=O)COc2ccccc2)cc1 | inactive
Cc1nc2ccccc2nc(C)c1=NO | inconclusive: 22.4 µM [inhibitor, single point]
O=C(CCCn1ncn2c(cc3occc32)c1=O)N1CCc2ccccc2C1 | inconclusive: 39.8 µM [inhibitor, single point]
CCN(CC)C(=O)/C(NC(=O)c1ccccc1)=C(/Sc1ncccn1)c1ccccc1 | inconclusive: 39.8 µM [inhibitor, single point]
Cc1nn(-c2ccccc2)c2sc(C(=O)OCc3nnc(-c4ccccc4)o3)cc12 | inconclusive: 7.08 µM [inhibitor, single point]
Cc1nc(OCC(=O)c2ccc(Cl)cc2)c(C#N)c2c1COC(C)(C)C2 | inactive
CCOC(=O)c1[nH]c(C)c(/C(O)=C2\C(=O)C(=O)N(CCCN3CCOCC3)C2c2cccs2)c1C (configuration not stated) | inconclusive: 39.8 µM [inhibitor, single point]
CC(=O)NC12CC3CC(C1)CC(C(=O)OCC(=O)Nc1ncc(Cl)cc1Cl)(C3)C2 | inconclusive: 39.8 µM [inhibitor, single point]
CC1C/C(=N/Nc2ccc([N+](=O)[O-])cc2[N+](=O)[O-])CC(C)(C)C1 (configuration not stated) | inactive
Cc1ccc(S(=O)(=O)CC(=O)Nc2ccc(S(=O)(=O)Nc3ccccn3)cc2)cc1 | inconclusive: 25.1 µM [inhibitor, partial curve]
Cc1cc2c3c(c1)C(C)(c1ccccc1)CC(C)(C)N3C(=O)C21C(C#N)=C(N)OC2=C1C(=O)CC(C)(C)C2 (configuration not stated) | inactive
COc1ccc(/C=C/C(=O)c2ccc(C)c([N+](=O)[O-])c2)cc1O | inactive
CCC(Sc1ccc2nnc(-c3cccnc3)n2n1)C(=O)OC (configuration not stated) | inconclusive: 25.1 µM [inhibitor, partial curve]
COc1ccc(-c2cc(-c3ccc(OC)cc3)nc(-c3ccc4c(c3)NC(=O)CO4)c2)cc1 | inconclusive: 14.1 µM [inhibitor, partial curve]
Cc1ccc(-c2cn3cccnc3n2)cc1NC(=O)c1cccs1 | inconclusive: 3.16 µM [inhibitor, single point]
C=C(C)COc1ccc2c3c(c(=O)oc2c1OCC(=C)C)CCC3 | inconclusive: 35.5 µM [inhibitor, single point]
O=C(Nc1cccc2ccccc12)c1cn(-c2ccccc2)nc1-c1cccs1 | inconclusive: 35.5 µM [inhibitor, single point]
CCN(CC)CCNC(=O)c1ccccc1N | inconclusive: 25.1 µM [inhibitor, partial curve]

SMILES | Potency
COc1ccc2c(c1)C(=O)N(c1ccccc1OC)C(=O)C2 | inactive
c1nc(NC2CCNCC2)c2cc(-c3ccc4c(c3)OCO4)ccc2n1 | inconclusive: 39.8 µM [inhibitor, single point]
CCN(CC)CCNC(=O)c1c(O)c2cccc3c2n(c1=O)CCC3 | inconclusive: 28.2 µM [inhibitor, partial curve]
Cc1cccc(NNC(N)=S)c1C | inactive
Cc1cccc([C@@H]2CN(C)CCc3c2cc(O)c(O)c3Cl)c1 | active: 14.1 µM
CCOCCCn1cnc2c3cc(F)ccc3n(C)c2c1=O | inconclusive: 25.1 µM [inhibitor, partial curve]
COc1ccc(-c2ccc(CCC(=O)O)n2NC(N)=O)cc1 | inconclusive: 22.4 µM [inhibitor, partial curve]
CC(=O)C1=C(O)C(=O)N(c2cccc(C(=O)O)c2)C1c1ccccc1F (configuration not stated) | inconclusive: 4.47 µM [inhibitor, single point]
O=C1c2ccccc2C(=O)c2c1ccc1c(=O)n(C3CCCCC3)[nH]c21 | inactive
COc1ccc(NC(=O)/C(C#N)=C\C=C\c2ccco2)cc1 | inactive
CCC(C)N1CNc2c(c(=O)[nH]c(=S)n2-c2cccc(C)c2)C1 (configuration not stated) | inconclusive: 39.8 µM [inhibitor, single point]
O=C(CSc1ccccc1)N/N=C/c1ccccc1O | inconclusive: 39.8 µM [inhibitor, single point]
COc1ccc(-c2cc(C(F)F)n3ncc(C(=O)N4CCN5CCCC5C4)c3n2)cc1 (configuration not stated) | inconclusive: 28.2 µM [inhibitor, partial curve]
Cc1ccccc1-c1nc(NCc2cccnc2)c2ccccc2n1 | inconclusive: 28.2 µM [inhibitor, single point]
Cc1cc(N2CCOCC2)nc2ccccc12 | inconclusive: 28.2 µM [inhibitor, partial curve]
Cc1cccn2c(=O)c(C=O)c(Cl)nc12 | inconclusive: 31.6 µM [inhibitor, partial curve]
O=C(CSc1nccc(=O)[nH]1)c1ccco1 | inactive
COc1cc2ncnc(NCc3ccc(C)cc3)c2cc1OC | inconclusive: 31.6 µM [inhibitor, single point]
CC(C)(C)n1nnnc1C(c1cc2cc3c(cc2[nH]c1=O)OCCO3)N1CCSCC1 (configuration not stated) | inconclusive: 28.2 µM [inhibitor, partial curve]
CN(C)S(=O)(=O)c1cccc(-c2nnc(SCc3cc(Cl)cc4c3OCOC4)n2N)c1 | inconclusive: 39.8 µM [inhibitor, single point]
COc1ccc(C(=O)CCc2nc3ccccc3s2)cc1 | inactive
CC(C)(C)c1ccc(OCCn2ccccc2=O)cc1 | inactive
COc1cc(/C=C2\S/C(=N/S(=O)(=O)Cc3ccccc3)NC2=O)c([N+](=O)[O-])cc1OC | inactive
Cc1ccccc1Nc1nc(N)nc(-c2oc3ccccc3c2C)n1 | inconclusive: 39.8 µM [inhibitor, single point]
